According to PubChem BioAssay AID1347073 (National Center for Advancing Translational Sciences (NCATS), 2019):
Out of some 45,000 compounds screened, about 200 (0.44%) were called active. Not shown: some 7% with an inconclusive outcome. The call rests on the fitted dose curve; in most records, active means well fitted activation curve with a large enough effect; inconclusive means small, poorly fitted or top-dose-only effect; inactive means no such curve, though single readings can be large or run the other way. The list shows a part of the results.

Test: qHTS of TDP-43 Inhibitors: NCGC Sytravon Library Screen; further: nearly all actives have a fitted effect of over 55% in size; on growth rescue (activation): 0% is about no effect
Conditions: yeast TDP-43 toxicity rescue, BacTiter-Glo growth, 24 h; series mostly up to 46.1 µM; growth rescue (activation): at the top concentration
Method in brief: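 TDP-43-expressing yeast, pregrown in raffinose, seeded at OD600 0.02 in galactose medium with compound for 24 hr at 30 deg C. Growth read by BacTiter-Glo luminescence, so rescue of toxicity appears as activation.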
Potency means the concentration at half of the fitted maximal effect.

Row | SMILES | growth rescue (activation) | Potency
1 | COc1cccc(C(=O)OC2CCN(C)CC2)c1 | inactive: -5.06% | 
2 | COc1ccc(-c2nc3ncccc3o2)cc1NC(=O)c1cccs1 | inactive: 6.08% | 
3 | Cc1ccc(-n2[nH]c(C)c(/C=N/N3C(=O)c4cccc5cccc(c45)C3=O)c2=O)cc1 | inactive: 8.85% | 
4 | COc1cc(C)ccc1OCCOCCOc1cccc2ccc(C)nc12 | inactive: 12.2% | 
5 | COc1ccc(CCNCC2C(Oc3ccc(Cl)cc3)C(=O)N2c2ccccc2C)cc1OC (centres undefined) | inactive: 19.4% | 
6 | Cc1ccc(NC(=O)Cc2nnc(N)s2)cc1 | inactive: 3.89% | 
7 | CCn1c(SCC(=O)Nc2cc(C)on2)nnc1-c1cccc(C)c1 | inactive: 11% | 
8 | CCn1c(CCC(=O)O)nc2cc(S(=O)(=O)N(C)C)ccc21 | inactive: 0.61% | 
9 | COc1cccc(N(CC(=O)NC2CCCCC2)C(=O)CCC(=O)Nc2nc(C)cs2)c1 | inactive: -1.48% | 
10 | CCOC(=O)c1ccc(S(=O)(=O)N2CC(=O)Nc3ccccc32)cc1 | inactive: 7.27% | 
11 | O=C(O)C1CCN(S(=O)(=O)c2ccc3c(c2)OCCCO3)CC1 | inactive: -7.53% | 
12 | COC(=O)CCN(C(=O)c1ccc(N2CCCC2)c([N+](=O)[O-])c1)c1ccccn1 | inactive: 10.9% | 
13 | CCCOc1ccc(Cc2c(Cl)nc(SC)nc2N(C)C)cc1 | inactive: 17% | 
14 | CCN1C(=O)c2ccc(C(=O)Nc3ccc(O)cc3C)cc2C1=O | inactive: -19.9% | 
15 | CC(Cc1c[nH]c2ccccc12)C(=O)NCc1ccco1 (centres undefined) | inactive: -6.61% | 
16 | S=c1[nH]cc(-c2ccccc2)n1-c1cccc(Cl)c1 | inactive: 7.5% | 
17 | CCCn1cc2c(c1-c1cccc(C)c1)c(=O)n(C)c(=O)n2C | inactive: -9.02% | 
18 | NC(=O)NC(Cc1ccccc1)C(=O)NCCCSc1ccccc1 (centres undefined) | inactive: -1% | 
19 | O=C(Oc1cccc2ccccc12)c1cc(Cl)nc2ccccc12 | inactive: 0.802% | 
20 | COc1cccc(NC(=O)Cn2c(=O)n(CC(=O)NCCc3ccccc3)c(=O)c3sccc32)c1 | inactive: -5.29% | 
21 | O=C(NCC1CCCO1)c1ccccc1-c1nc(-c2ccccc2Cl)no1 (centres undefined) | inactive: 19.2% | 
22 | Cc1cc(N2CCOCC2)nc2ccc(NC(=O)CCC(=O)N3CCN(c4cccc(C(F)(F)F)c4)CC3)cc12 | inactive: -0.989% | 
23 | COc1ccc(Nc2nc3c(C)cccc3cc2C#N)c(OC)c1 | inactive: 13.4% | 
24 | O=C(COC(=O)C1(c2ccccc2F)CCCC1)N1CCc2ccccc21 | inactive: 6.21% | 
25 | CC(C1CC2CCC1C2)n1c(-c2cccs2)n[nH]c1=S (centres undefined) |  | active: 14.1 µM
26 | CC12CCC(C(=O)Nc3cccc(Cl)c3Cl)([C@H](Br)C1=O)C2(C)C (some centres undefined) | inactive: 7.55% | 
27 | C/C(=N\NC(=O)C1CCCN(S(=O)(=O)c2ccccc2)C1)c1cccnc1 (centres undefined) | inactive: -0.15% | 

Row | SMILES | growth rescue (activation) | Potency
28 | O=C(CCN1C(=O)c2cccc3cccc(c23)C1=O)N1CCN(c2ccccc2F)CC1 | inactive: -16.6% | 
29 | CC(C)c1onc(C(=O)N2CCCCCC2)c1[N+](=O)[O-] | inactive: 13% | 
30 | O=[N+]([O-])c1cccc(/C=N/n2cnnc2)c1 | inactive: 7.1% | 
31 | O=C(NC(=S)Nc1ccc2oc(-c3ccncc3)nc2c1)c1ccccc1F | inactive: -23.5% | 
32 | O=C(CSc1nc2[nH]c(=O)cc(O)c2s1)Nc1nncs1 | inactive: -2.5% | 
33 | Cc1ccc(CNC(=O)C2CCN(C(=O)c3cnn(-c4ccccc4)c3-n3cccc3)CC2)cc1 | inactive: 0.569% | 
34 | CCOCc1nnc(NC(=O)C2CC(=O)N(CCc3ccc(F)cc3)C2)s1 (centres undefined) | inactive: 7.09% | 
35 | CC(=O)NC(c1ccc(F)c(F)c1)c1nc(-c2cccs2)cs1 (centres undefined) | inactive: 22.5% | 
36 | CC(CN1CCCCC1)OC(=O)c1ccc(Cl)cc1 (centres undefined) | inactive: -12.5% | 
37 | O=C(CCNC(=O)c1ccccc1Cl)NN=Cc1ccccc1[N+](=O)[O-] | inactive: -8.33% | 
38 | Cc1cccc(OCC(=O)NCCCNC(=O)c2cccnc2)c1 | inactive: -2.76% | 
39 | CCCn1c(N)c(N2CCCCC2)c(=O)n(CC(=O)Nc2ccc(C(C)=O)cc2)c1=O | inactive: 20.5% | 
40 | CC(C)c1nnc(NC(=O)CSc2nc3ccccc3[nH]2)s1 | inactive: -3.66% | 
41 | CCn1c(Cc2ccccc2)nnc1SCC(=O)Nc1ccc2c(c1)OCO2 | inactive: 10.5% | 
42 | Cc1cccc(C(O)c2ncc(-c3ccccc3Cl)[nH]2)c1C (centres undefined) | inactive: 10.5% | 
43 | O=C(NCc1ccco1)c1ccc2c(c1)N(Cc1ccc(Cl)cc1)CCS2 | inactive: -1.15% | 
44 | Clc1nnc(N2CCCCC2)c2ccccc12 | inactive: 11% | 
45 | COc1ccc(/C=C/C(=O)Nc2nonc2NC(C)=O)cc1 | inactive: 19.2% | 
46 | CC(C)NCC#CCOc1ccc(Cl)cc1 | inactive: -10.9% | 
47 | COCCSc1nnc(NC(=O)CS(=O)(=O)c2ccccc2)s1 | inactive: -1.93% | 
48 | Cc1ccc(C(=O)NC(=S)Nc2ccc(N3CCOCC3)cc2)c(C)c1 | inactive: 13.8% | 
49 | CC(=O)c1c(C)[nH]c(C(=O)Nc2cccc(S(=O)(=O)N3CCCC3)c2)c1C | inactive: 14.6% | 
50 | COc1ccc(S(=O)(=O)NC(C)C(=O)NCc2ccccn2)cc1Cl (centres undefined) | inactive: -1.17% | 
51 | COc1c(F)c(F)c(C(=O)O)c(Nc2cccc(C)c2)c1F | inactive: 6.02% | 
52 | Cc1ccc(N=C(N(C)C)P(=O)(N(C)C)N(C)C)c(C)c1 | inactive: 4.22% | 
53 | NC(=O)C1CCN(C(=O)c2ccc(F)c(S(=O)(=O)N3CCOCC3)c2)CC1 | inactive: 7.33% | 
54 | Cc1ccc(-c2nnc(SCC(=O)NC3CC3)o2)cc1 | inactive: 7.52% | 
